Reference: the supplement of paper PMC5499739
Whole data set: some 16,000 sequences, median “Z-score” near -0.37, cut for the highest 2% near 3.1. This is one part of the list.

tested on: RBM10 RRM1-ZnF-RRM2 (GST-tagged construct); assay: RNAcompete 7-mer binding Z-score; higher = stronger binding preference
Method in brief: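 In 1 ml Hepes pH 7.8 buffer with KCl, NaCl, glycerol, DTT, BSA and glutathione Sepharose beads, GST-tagged RBM10 constructs (20 pmol) were incubated for 30 min at 4°C with 1.5 nmol of a designed pool of 241 399 RNAs up to 41 nt. Four 2-min washes at 4°C followed, and bound RNA was detected by microarray hybridisation. Heptamer motif enrichment was expressed as a one-sided Z-score across probes containing each motif.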

Sequence | RNAcompete 7-mer binding Z-score
UAAGAUA | -0.027
ACCGCAU | -0.934
CUGUGUA | -0.417
GAGACAU | 0.301
CCGUCUU | -0.934
UAGAUUU | -0.57
UUGGCGC | -0.103
AGCCUUC | -0.719
UACGUGC | -0.369
GCCUCAU | -0.938
UCACUAA | -0.723
CUGAGCU | -0.632
UGGCAAC | 0.541
ACUGGUA | 0.0641
AGUUAAA | -0.0415
GCGGACA | 0.807
CUAGUGA | -0.202
GGCCCUA | -0.439
GGUGCUG | 1.72
GCCGUAC | -0.635
CGUCUUG | -0.77
GUAUCCG | -0.311
CUCUAUG | -0.763
ACUCCAA | -0.533

Sequence | RNAcompete 7-mer binding Z-score
CCAUAGA | -0.464
AGUGCCU | -0.577
UAAGUCU | -0.635
CAAAUUC | -0.752
UUAUGGA | 0.683
UAGGCAA | 1.53
CGGGGGG | 3.04
GGCCUCG | -0.26
AACGCAC | -0.701
UGGACAU | 0.559
UCGUCUU | -0.519
CGUCGUA | 0.0532
UAGCCUA | -0.865
AUGCGCA | -0.246
AAUACCU | -0.774
UAUAGGU | 0.92
CGGCAUA | -0.224
AGUCGCA | -0.122
AGCAUCA | -0.271
CAAACGG | 0.829
GUAAUCA | 0.213
UGAGGCU | 0.315
AUAAGAG | 0.406
UACCUCC | -0.755

Sequence | RNAcompete 7-mer binding Z-score
GAUGUAG | 1.5
CCAAUUG | -0.453
CAUUGGG | 1.37
UAUAGUC | -0.621
ACCAUGA | -0.602
CUGCGCG | -0.398
AACCCUA | -0.883
GAACCCG | -0.744
CAGGCCU | -0.624
AUUGGGC | 1.78
GUCGGGU | 1.85
ACGCUAA | -0.646
GUGCCGG | 0.556
ACCCAAG | -0.639
CAUGUUG | -0.326
GUUUGCU | -0.551
GUUGACA | 0.29
CUUUACU | -0.967
UUGCGUC | -0.595
CGAUAGG | 1.46
UUCAAUU | -0.719
UUAAGAA | -0.151
CAGUAAA | -0.14
UGUUGGG | 2.15

Sequence | RNAcompete 7-mer binding Z-score
CCCCCCG | -0.118
AGGUCAA | 0.479
UUUGACU | -0.785
CUAGAGG | 0.323
GCAGGAG | 2.76
UUCCGAC | -0.708
GGCGUAA | 0.96
CGGGCUG | 0.625
AGGCUCA | -0.373
AGUAAAA | -0.0415
AACAAGG | 2.83
GUAUCUC | -0.581
GGUUAUA | 0.592
GUAGGUU | 1.62
CAUCCCA | -0.486
UUGAGAU | -0.122
CAACGAC | -0.256
AGCAACA | 0.0131
GCCACCA | -0.566
GGUCAGU | 0.796
ACAUGUA | -0.122
UCUCGAG | -0.566
CCCUGUU | -0.981
UCACAUC | -0.734

Sequence | RNAcompete 7-mer binding Z-score
GUCAGCG | 0.177
AAACGAA | 0.108
UCAGUUU | -0.712
GAUGCAA | 0.308
GACCAAU | -0.209
ACCUUAC | -0.981
GUCCCGA | -0.581
AUUGUCA | -0.599
UUAUCUU | -0.77
UCAGAUU | -0.635
UUAGUGU | -0.0161
UAACGCA | -0.519
CUGGGGU | 1.79
UAGAAGC | -0.0343
CAGCCAA | -0.344
CACUUCU | -1.01
GUCGUUG | 0.0604
AUGGGAG | 3.64
ACCACAC | -0.533
UCUGUCU | -0.81
UAAAGGU | 1.78
GGCCGUC | -0.398
AGGGACA | 2.4
AGUGCGG | 1.38

Sequence | RNAcompete 7-mer binding Z-score
AACAGGU | 1.74
UCCUAAC | -0.843
GACGAUA | 0.144
CAAAGAG | 0.166
AAGAUUC | -0.482
CGCACGA | 0.0204
GGAGAGC | 2.03
CGGCUGG | 0.348
UCGAGUG | 0.133
UGGUCGC | 0.0786
UCCGUCC | -0.73
CCGUAGA | -0.373
AUCUGUA | -0.621
UAUUAUA | -0.49
AGGCAAA | 0.658
UGGCAGU | 0.436
UCCCGGC | -0.573
CGCCGCU | -0.679
GUGCUCC | -0.471
CGUUGUA | -0.384
AAGAUAA | -0.0233
CAUAGAG | 0.345
CUUAGGG | 0.516
GGAUCCA | 0.122

Sequence | RNAcompete 7-mer binding Z-score
GCAUACG | 0.111
GCCUUUU | -0.963
GGUCUUU | -0.406
CAGGAGU | 1.71
GGAGCAC | 1.66
CCAAUCC | -0.672
UAUCGUA | -0.428
AGGGUAA | 4.77
GUCCAUG | -0.351
UGUCCGG | -0.242
CUUCUCA | -0.981
UACAACC | -0.511
ACGAGUC | -0.439
GGUUCCC | -0.144
UUCAAGA | -0.409
UUCUUCC | -0.781
AGGAACU | -0.00148
GGGGUCU | 1.2
GUCGCGU | -0.0124
UUCAGGA | 0.21
AAGGCGG | 2.97
CCGUUUU | -1.01
AAUCCAA | -0.409
ACAGAGG | 1.76

Sequence | RNAcompete 7-mer binding Z-score
UUACAUC | -0.628
UGGCGCG | 1.06
UGAGGUU | 1.64
UGUAACA | -0.00877
AGGAGGU | 2.71
UCGGUAC | -0.144
AGAUGCG | 0.0495
AGCGCAC | -0.406
UAGAAAA | 0.0641
CACUAAA | -0.719
AGAUAAU | -0.136
UCCUGCG | -0.766
GGAUCGG | 1.96
UCUGUAC | -0.551
UGUUCUC | -0.781
CCCUACC | -0.836
CCACUGU | -0.817
UUUCGCA | -0.894
UCGCCCU | -0.806
AUGACAU | -0.216
GGGGCGG | 2.79
AAAGUCA | -0.0233
GACUCCU | -0.828
AGUGCGA | 0.989

Sequence | RNAcompete 7-mer binding Z-score
UCACAUA | -0.664
GAAACAA | 0.388
AUAGACG | 0.217
AUUGAUG | 0.294
UUGACCA | -0.49
CUUCAAG | -0.595
GAGAUAC | 0.323
ACGCUAC | -0.643
CUCCGCA | -0.752
GCUAAGU | -0.246
CUACGAC | -0.777
GUCAUAG | -0.0525
UAGCGAG | 0.694
GAGGUAA | 2.53
AAGCAUC | -0.358
UGGCGAA | 1.4
UGAAACG | -0.0889
AGGUCGA | 0.607
GCAAAAG | 0.614
AAUUUGA | -0.482
CCAGUAC | -0.482
UAGCCGC | -0.592
CACGACG | -0.103
AAAGGUC | 1.46

Sequence | RNAcompete 7-mer binding Z-score
ACUCAGC | -0.664
AGGAGAU | 1.47
AUCGGUG | 0.691
CCCAUUC | -0.785
CAGCAAC | -0.431
GAGGUCU | 0.0167
CCCGAUG | -0.446
GAGUCGC | 0.184
UCAAGAU | -0.402
UGAUCUA | -0.715
GGUAUAC | 0.891
UACCCCG | -0.551
AGACGUC | -0.785
ACGUGCC | -0.621
AUAAUAA | -0.42
UUUUUAA | -0.621
UAAGCGG | 0.931
UUAAAGA | -0.351
